28 compounds from PubChem BioAssay AID485344 (National Center for Advancing Translational Sciences (NCATS), 2010) can be followed below.

The structures appear in SMILES notation. The campaign covered roughly 340,000 compounds. About 6,900 (2%) were called active. Only a part is listed here, and it is no random draw. The source gives no active or inactive call for entries shown without one.

This assay has as its target D(2) dopamine receptor (Homo sapiens) (UniProt P14416). The assay is described as follows: HTS Assay for Allosteric Antagonists of the Human D2 Dopamine Receptor: Primary Screen for Antagonists. Further: 0% is about no effect. The conditions noted are these: HEK293 TREx D2 cells, calcium flux, dopamine EC80; at 10 µM; stronger effect = higher value. In outline: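 Calcium flux kinetic readout in an inducible HEK293 TREx D2 line plated overnight at 30 C. After 180 s compound exposure, an EC80 dopamine challenge follows with another 180 s kinetic read to detect antagonism.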
Chain of UniProt P14416 (P14416 whole entry, looked up): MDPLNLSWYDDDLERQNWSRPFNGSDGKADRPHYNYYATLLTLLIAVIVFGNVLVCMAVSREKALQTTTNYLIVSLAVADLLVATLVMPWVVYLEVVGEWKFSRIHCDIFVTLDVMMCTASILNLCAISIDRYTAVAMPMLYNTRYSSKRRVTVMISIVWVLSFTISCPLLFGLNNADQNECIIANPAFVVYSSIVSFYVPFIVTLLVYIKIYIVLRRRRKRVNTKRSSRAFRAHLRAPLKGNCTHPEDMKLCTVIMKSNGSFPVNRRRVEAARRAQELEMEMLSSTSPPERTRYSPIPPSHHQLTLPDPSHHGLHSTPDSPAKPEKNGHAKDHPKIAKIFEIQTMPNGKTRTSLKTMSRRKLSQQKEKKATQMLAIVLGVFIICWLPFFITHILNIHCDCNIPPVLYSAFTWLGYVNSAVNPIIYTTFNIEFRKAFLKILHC
With `COC(=O)c1c(-c2cccs2)csc1NC(=O)COc1ccc(C)cc1`, the inhibition was 16.8%. As for `Cc1cccc2c1-c1sc(C(=O)N(C)c3cccc(Cl)c3)cc1CO2`, the inhibition was 3.63%. The figure for `COc1ccc(C(CC(=O)Nc2ccc(C(C)=O)cc2)N2Cc3ccccc3C2=O)cc1` (stereo not drawn) is 8.35%; for `O=C(c1ccc2c(c1)N(Cc1cccc(F)c1)C(=O)c1ccccc1S2)N1CCCC1` it is 1.7%.

With `CC(C)c1cnc2c(c1SCC(=O)NCc1ccccc1Cl)c(=O)n(C)c(=O)n2C`, the inhibition was -17.8%. For `Cc1ccc(CN2C(=O)c3ccccc3CC2(C)C(=O)NC2CCCCC2)cc1` (stereo not drawn), the inhibition is -1.99%. The figure for `COc1ccc(NC(=O)NC2COc3ccccc3C2)cc1Cl` (stereo not drawn) is 7.18%; for `Cc1cccc(N2CCN(C(=O)c3noc4c3COc3ccc(C)cc3-4)CC2C)c1` (stereo not drawn) it is -6.24%. Take `CCOc1ccccc1C(=O)NC1(C(F)(F)F)C(=O)Nc2c1c(=O)[nH]c(=O)n2-c1ccc(F)cc1` (stereo not drawn): the inhibition was determined as 7.11%.

For `CSc1ccc(CCNC(=O)CCc2c(C)nc3ncnn3c2C)cc1`, the inhibition was found to be 3.32%. Take `CCOc1ccccc1NS(=O)(=O)c1ccc2c(c1)oc(=O)n2C`: the inhibition is -21.6%. On to `CCc1cc2c(cc3c(=O)n(CCCC(=O)NCc4cccc(Cl)c4)ncn32)s1`, for which the inhibition was determined as 13.2%. The figure for `O=C(CCSCc1ccccc1Cl)NCc1ccc(F)cc1Cl` is 5.3%; for `COc1ccccc1N1CCN(C(=O)c2c(C)oc3ncn(C)c(=O)c23)CC1` it is -9.86%; for `Cc1cc2c(n1-c1ccc(C(=O)NCc3ccccc3Cl)cc1)CCCC2` it is 11%. The figure for `O=C(CN1C(=O)CCn2nc(-c3ccccc3)cc21)NCc1ccc(Cl)cc1` is 4.27%; for `Cc1cccc(CCNC(=O)c2cc3c(=O)n(C)c4ccccc4c3n2C)c1` it is 15%.

For the compound `O=C(CCn1cccn1)Nc1ccc(Br)cc1F`, the inhibition stood at 4.38%.

`CCOC(=O)CSc1nc2ccc(NC(=O)c3cccc(F)c3)cc2s1`: the inhibition was -11.6%. The figure for `COc1ccc(CNC(=O)c2ccc3c(c2)N(Cc2c(F)cccc2Cl)C(=O)CS3)cc1` is -11.3%; for `O=c1c(NCc2cccs2)nccn1-c1ccc(F)cc1` it is 4.88%. The figure for `Cc1nc2ccccc2n1CCc1nc2c3ccccc3nc(SCc3ccc(C#N)cc3)n2n1` is 26.8%; for `COc1cccc(NC(=O)CN(CCc2ccccc2)S(=O)(=O)c2ccc(Cl)cc2)c1` it is -8.6%. The figure for `Cc1cccc(-c2nc3c4ccccc4nc(NCCc4ccccc4)n3n2)c1` is -6.11%; for `O=S(=O)(NCc1nc2cccnc2n1Cc1ccccc1Cl)c1ccc2c(c1)CCCC2` it is -9.69%; for `CCOc1ccc(NS(=O)(=O)c2ccc3[nH]c4c(c3c2)CCCCC4)cc1` it is 10%. For the compound `O=C(COCc1cc(-c2ccc(F)cc2)on1)Nc1cc(F)ccc1F`, the inhibition came out at 5.21%. The figure for `CCOc1ccc(S(=O)(=O)NCCc2c(C)[nH]c3c(Cl)cccc23)cc1C` is 18.2%.
